# Test results as given in PubChem BioAssay AID1347073 (National Center for Advancing Translational Sciences (NCATS), 2019).
# Out of some 45,000 compounds screened, about 200 (0.44%) were called active. Not shown: some 7% with an inconclusive outcome. Calls come from the whole dose curve; as a rule, active = well fitted activation curve with a large enough effect; inconclusive = small, poorly fitted or top-dose-only effect; inactive = no such curve, though single readings can be large or run the other way. The list shows a part of the results.
# Experiment: qHTS of TDP-43 Inhibitors: NCGC Sytravon Library Screen; note: 0% is about no effect; nearly all actives have a fitted effect of over 55% in size
# Details: yeast TDP-43 toxicity rescue, BacTiter-Glo growth, 24 h; series mostly up to 46.1 µM; growth rescue (activation): at the top concentration
# Procedure, shortened: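 TDP-43-expressing yeast, pregrown in raffinose, seeded at OD600 0.02 in galactose medium with compound for 24 hr at 30 deg C. Growth read by BacTiter-Glo luminescence, so rescue of toxicity appears as activation.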
row,Structure (SMILES),growth rescue (activation)
1,COc1ccc(CN2CCN(Cc3cc(=O)oc4cc(C)ccc34)CC2)c(OC)c1OC,inactive: 4.97%
2,CCn1c(-c2ccccn2)nc2cc(S(=O)(=O)N(C)C)ccc21,inactive: 16.6%
3,O=C(Nc1ccc(S(=O)(=O)Nc2ncccn2)cc1)c1cncc(Br)c1,inactive: -18.6%
4,COc1cccc(C(C)N(C)Cc2nc(-c3ccoc3)oc2C)c1 (configuration not stated),inactive: -7.49%
5,CN(C)C(CNC(=O)CNC(=O)c1ccc2ccccc2c1)c1ccccc1 (configuration not stated),inactive: 3.45%
6,O=C(Oc1cccc(N2C(=O)C3C4c5ccccc5C(c5ccccc54)C3C2=O)c1)c1ccco1 (configuration not stated),inactive: 21.5%
7,O=C(COC(=O)C1CC2C=CC1C2)Nc1cccc(S(=O)(=O)N2CCCCCC2)c1 (configuration not stated),inactive: 17.5%
8,COC(=O)c1c(NC(=O)c2cccnc2)sc(C(=O)N(C)C)c1C,inactive: -11%
9,CC1=NN(c2cccc(Cl)c2)C(=O)C1,inactive: -4.83%
10,CSCCC(NC(=O)c1cc([N+](=O)[O-])ccc1Cl)C(=O)O (configuration not stated),inactive: -0.513%
11,Cc1cc(C)n(C(=O)c2ccc([N+](=O)[O-])cc2Cl)n1,inactive: 13.3%
12,CSc1ccc(S(=O)(=O)NCCCn2ccnc2)cc1,inactive: -0.835%
13,COc1ccc(CNC(=O)COC(=O)c2c(C)nn(-c3ccccc3)c2C)cc1OC,inactive: 30.6%
14,CC(=O)C12CCCCC1CC1[C@@H]3CC(C)C4=CC(=O)CC[C@]4(C)C3CC[C@@]12C (some centres not stated),inactive: -9.73%
15,O=C(Nc1ccccc1C(=O)N/N=C/c1ccccc1)c1ccco1,inactive: 11.8%
16,O=C(C/C=N\OCc1ccc([N+](=O)[O-])cc1)Nc1ccc(Br)cc1,inactive: 2.93%
17,COc1cccc(C(C)(O)c2nc(-c3cccc(C(=O)O)c3)cs2)c1 (configuration not stated),inactive: 5.03%
18,Cc1csc(NC(=O)CS(=O)(=O)Cc2ccccc2)n1,inactive: -18.1%
19,CC(C)n1c(SCC(=O)N2CCCCC2)nc2c1c(=O)n(C)c(=O)n2C,inactive: 3.76%
20,COc1ccc(NS(=O)(=O)c2cc(NC(=O)CCSc3ccccc3)ccc2OC)cc1,inactive: 19.5%
21,COc1ccc(-n2nc(C(=O)NCC(=O)NCCc3ccc(OC)c(OC)c3)c3ccccc3c2=O)cc1Cl,inactive: -7.59%
22,CCN(CC)CCCNC(=O)c1oc2ccc(S(=O)(=O)N3CC(C)CC(C)C3)cc2c1C (configuration not stated),inactive: -2.57%
23,O=S(=O)(NCC(c1cccnc1)N1CCN(c2ccccc2)CC1)c1cccs1 (configuration not stated),inactive: 26.9%
24,O=[N+]([O-])c1ccc(CN2CCN(c3ccc4ccccc4n3)CC2)cc1,inactive: -3.61%
25,Cc1ccc(N(C(=O)CC2NC(=O)NC2=O)C2(C(=O)NC3CCCC3)CCCCC2)cc1 (configuration not stated),inactive: -4.7%
26,CC1Cc2ccccc2N1Cc1cccc(S(=O)(=O)N(C)C)c1 (configuration not stated),inactive: 21.1%

row,Structure (SMILES),growth rescue (activation)
1,O=C(CSc1ncccn1)NC(=O)NCc1ccco1,inactive: 3.2%
2,COc1ccc(S(=O)(=O)N(CC(=O)NC2CC2)Cc2ccccc2)cc1,inactive: 16.8%
3,COc1ccccc1NS(=O)(=O)c1cccc(C(=O)N/N=C/c2ccc(OCC(=O)O)cc2)c1,inactive: 8.83%
4,O=C(Cn1cc(C(F)(F)F)ccc1=O)Nc1ccc2c(c1)OCCO2,inactive: -4.61%
5,O=S(=O)(c1ccc(Br)cc1Cl)N1CCN(CCO)CC1,inactive: 1.43%
6,CCCCOC(=O)CSC1=C(C#N)C(c2cccnc2)C(C(=O)OCC)=C(c2ccccc2)N1 (configuration not stated),inactive: 4.47%
7,COc1ccc(N2C3=C(C(=O)CC(C)(C)C3)C(c3ccccc3OC)C3=C2CC(C)(C)CC3=O)cc1,inactive: 8.03%
8,COc1ccccc1NC(=O)CN(Cc1ccco1)C(=O)c1ccc(=O)[nH]c1,inactive: -10.6%
9,CCOc1cccc(C2C(C(=O)c3ccc(C)o3)=C(O)C(=O)N2c2nnc(C)s2)c1 (configuration not stated),inactive: -4.2%
10,CC1CC(C)CN(S(=O)(=O)N2CCC(C(=O)NCc3ccco3)CC2)C1 (configuration not stated),inactive: -4.61%
11,Cc1cc(Cl)ccc1NC(=O)Cn1cncn1,inactive: 7.12%
12,O=C(CCl)N1N=C(c2ccco2)CC1c1ccco1 (configuration not stated),inactive: 1.37%
13,COc1ccc(CN2C(=O)CC(C(=O)NCCc3ccc(S(N)(=O)=O)cc3)SC2=Nc2ccccc2)cc1 (configuration not stated),inactive: 5.11%
14,CCC(Sc1nncn2c1cc1oc(C)cc12)C(=O)Nc1ccc(F)cc1 (configuration not stated),inactive: 24.4%
15,NC(c1ccccc1)c1csc(NC(=O)Nc2cccc(Cl)c2)n1 (configuration not stated),inactive: 22.6%
16,O=C(Nc1ccccc1C(=O)Nc1ccccc1)c1cccs1,inactive: 0.606%
17,O=C(NCC(=O)N1CCCC1)c1ccccc1F,inactive: 2.55%
18,COc1cccc(-c2csc(NC3OC(=O)c4c3ccc(OC)c4OC)n2)c1 (configuration not stated),inactive: 3%
19,Cc1ccc(C)c(-n2cc(-c3ccc(Cl)cc3)nc2SCC(=O)NC2CCS(=O)(=O)C2)c1 (configuration not stated),inactive: 2.93%
20,NS(=O)(=O)c1cccc(NC(=O)CN2CCN(S(=O)(=O)c3ccc4c(c3)OCCO4)CC2)c1,inactive: 10.8%
21,COc1cc(C(=O)OCC(=O)c2cc(C)n(CC3CCCO3)c2C)ccc1OCC(=O)N1CCOCC1 (configuration not stated),inactive: 20.2%
22,Cc1ccc(-c2cc(NC(=O)c3ccccc3)on2)cc1,inactive: -0.839%
23,CCc1ccccc1NC(=S)N(Cc1ccc(C(=O)O)cc1)Cc1ccc(OC)c(OC)c1,inactive: 4.02%
24,O=C(CN1CCN(c2ccc(F)cc2)CC1)Nc1nccs1,inactive: 10.1%
25,COc1cc2cc(CN(Cc3cccs3)C(=S)Nc3ccc(C)cc3)c(=O)[nH]c2cc1OC,inactive: -4.45%
26,CCCOc1ccc(NC(=O)CC2C(=O)N(C)C(=S)N2Cc2ccc3c(c2)OCO3)cc1 (configuration not stated),inactive: 18.2%

row,Structure (SMILES),growth rescue (activation)
1,CC(O)C(NS(=O)(=O)c1ccc(Cl)cc1)C(=O)OCC(=O)c1c[nH]c2ccccc12 (configuration not stated),inactive: -4.96%
2,CCOC(=O)c1cc(-c2ccccc2)n(CC(=O)Nc2cc(OC)cc(OC)c2)c1C,inactive: 15.3%
3,Cc1ccc(F)c(S(=O)(=O)NC(=O)C2(C)CCN2C(=O)c2cccc3ccccc23)c1 (configuration not stated),inactive: -1.89%
4,CCC(C)(C)NC(=O)/C=C/c1ccc(OC)c(S(=O)(=O)N2CCOCC2)c1,inactive: 13.7%
5,Cc1ccc2c(c1)sc(C)[n+]2CCCS(=O)(=O)[O-],inactive: -2.2%
6,CCOc1ccccc1N=C1SC(CC(=O)Nc2ccc(OC)cc2OC)C(=O)N1CCC1=CCCCC1 (configuration not stated),inactive: -0.119%
7,Fc1ccc(C2CCNCC2COc2ccc3c(c2)OCO3)cc1 (configuration not stated),inactive: -3.08%
8,COc1ccc(CN2C[C@@H](CO)O[C@@H](n3cnc4c(N5CCN(CCO)CC5)ncnc43)C2)cc1,inactive: -5.43%
9,Cc1ccc2cc(CN(C(=O)c3ccncc3)C(C)C)c(=O)[nH]c2c1,inactive: 2.78%
10,CCCC(=O)OCC(=O)Nc1cc([N+](=O)[O-])ccc1OC,inactive: 1.08%
11,Cc1nn(CC(=O)NCc2cccnc2)c(C)c1[N+](=O)[O-],inactive: -5.58%
12,CCCCn1c(-c2ccc(OC(F)F)cc2)nc2c1c(=O)[nH]c(=O)n2CC(C)C,inactive: 8.08%
13,O=[N+]([O-])c1cccc(/C=N/NS(=O)(=O)c2ccccc2)c1,inactive: 0.297%
14,CC(=O)Nc1ccc(-c2cc(N)n(-c3ccccc3)n2)cc1,inactive: -1.44%
15,O=[N+]([O-])c1ccc(-c2nc(=S)c3c(o2)CCCC3)cc1,inactive: 19.2%
16,CCC(C)(C)NC(=O)C(c1cccc(OC)c1OC)N(Cc1ccc(OC)cc1)C(=O)CCC(=O)Nc1cc(C)on1 (configuration not stated),inactive: 12.1%
17,Cc1ccc(S(=O)(=O)NC(=O)NCCCN2CCOCC2)cc1,inactive: -13.7%
18,CCCn1c(SCC(=O)c2ccc(CC)cc2)n[nH]c1=O,inactive: 14.2%
19,CCn1c(=O)c(C(=O)NNC(=O)c2ccccc2Cl)c(O)c2ccccc21,inactive: -58.8%
20,CC(C)c1nc2sc3c(=O)n(N)cnc3c2c2c1COC(C)(C)C2,inactive: 6.51%
21,COc1ccc(C(=O)NC(=S)Nc2ccc3c4c(cccc24)CC3)cc1OC,inactive: -16.4%
22,CC1CCC(NC(=O)CC(NC(N)=O)c2ccccc2Cl)CC1 (configuration not stated),inactive: -2.61%
23,COc1cc(OC)c(S(=O)(=O)Nc2ccccc2N2CCOCC2)cc1NC(C)=O,inactive: 1.56%
24,CC(=O)Nc1ccc(S(=O)(=O)N2CCNC(=O)C2)cc1,inactive: 2.64%
25,Cc1ccc(C)c(CN2C(=O)c3ccccc3S(=O)(=O)c3ccc(C(=O)N4CCCCC4)cc32)c1,inactive: 15.1%
26,CC(C)Cn1c(N)c(C(=O)COC(=O)CCc2nc3ccccc3s2)c(=O)n(C)c1=O,inactive: 18.9%

row,Structure (SMILES),growth rescue (activation)
1,Cc1ccc(S(=O)(=O)NCC(C)NC(=O)CN2CCOCC2)cc1 (configuration not stated),inactive: 10.5%
2,CCCn1c(SCC(=O)N2N=C3/C(=C/c4ccc(OC)cc4)CCCC3C2c2ccc(OC)cc2)n[nH]c1=O (configuration not stated),inactive: 19.2%
3,Cc1cccn2cc(-c3ccc(F)cc3)cc12,inactive: 1.75%
4,Cc1ccc2c(C)c(C(=O)Nc3c(C)n(C)n(-c4ccccc4)c3=O)oc2c1,inactive: -5.29%
5,COc1ccccc1C(=O)Nc1ccc2c(c1)CCCN2C(=O)c1cccs1,inactive: 14.2%
6,COc1cc(S(=O)(=O)Nc2ccc3c(c2)C(=O)N(C)C3=O)ccc1NC(C)=O,inactive: -8.14%
7,COc1ccc(CNC(=O)C(C)Sc2ccc(C)cc2)cc1 (configuration not stated),inactive: 29.7%
8,CCc1ccc(OCC(=O)N/N=C(\C)c2ccc(O)cc2O)cc1,inactive: 8.76%
9,COc1cc(C2CC(=O)Oc3c2c(=O)n(C)c2ccccc32)cc(OC)c1OC (configuration not stated),inactive: -9.37%
10,COC(=O)c1ccc(-c2nc3ccccc3[nH]2)cc1,inactive: -42.6%
11,CC(=O)c1ccc(/C=C/c2nc3ccccc3n2C)o1,inactive: -8.78%
12,O=C1CCCCC1C(=O)c1ccccc1 (configuration not stated),inactive: 7.64%
13,Cc1ccccc1N(C(=O)Cc1c[nH]c2ccccc12)C(C(=O)NC1CCCCC1)c1ccco1 (configuration not stated),inactive: 5.33%
14,Cc1ccc(OCC(=O)Nc2ccc3oc(=O)ccc3c2)cc1,inactive: 22.6%
15,CCc1nc2c(OCc3ccc(Cl)cc3)cccn2c1N(C)C(=O)c1ccc2c(c1)OCO2,inactive: 6.36%
16,CC(=O)N(CCCN(C)C)Cc1ccccn1,inactive: -2.04%
17,O=C(NCc1cccs1)c1ccc2ccccc2n1,inactive: 23%
18,CCC(C)[C@H](NC(=O)NCCC1=CCCCC1)C(=O)OC (some centres not stated),inactive: 4.18%
19,CC(=O)c1cc2c(cc1N/C(=N/S(=O)(=O)c1ccc(Br)cc1)c1ccccc1)OCO2,inactive: 12.3%
20,COc1ccc(N(C(=O)c2ccco2)C(C(=O)NC2CCCC2)c2ccc(N3CCOCC3)cc2)c(OC)c1 (configuration not stated),inactive: 9.04%
21,CC(C)c1ccc(Nc2c([N+](=O)[O-])c(=O)n(C)c3ccccc23)cc1,inactive: 9.28%
22,COc1ccc(C(=O)C2CCCN(C(=O)c3cccnc3SC)C2)c(C)c1 (configuration not stated),inactive: 19.4%
23,O=C(O)Cn1c(=O)c2c3c(sc2n(Cc2ccc(Cl)cc2Cl)c1=O)CCCC3,inactive: 6.69%
24,O=C(COC(=O)/C=C/c1ccccc1)NC(=O)NC1CCCCC1,inactive: 16.3%
